Experimental data taken from article PMC10540217 (2023).

Experiments:
[1] = molecular target: T1, SENP1 (Homo sapiens (Human), UniProt Q9P0U3); experiment: covalent activity-based probe reaction, gel; covalent reaction through C-terminal propargylamine warhead on SUMO
T1 chain: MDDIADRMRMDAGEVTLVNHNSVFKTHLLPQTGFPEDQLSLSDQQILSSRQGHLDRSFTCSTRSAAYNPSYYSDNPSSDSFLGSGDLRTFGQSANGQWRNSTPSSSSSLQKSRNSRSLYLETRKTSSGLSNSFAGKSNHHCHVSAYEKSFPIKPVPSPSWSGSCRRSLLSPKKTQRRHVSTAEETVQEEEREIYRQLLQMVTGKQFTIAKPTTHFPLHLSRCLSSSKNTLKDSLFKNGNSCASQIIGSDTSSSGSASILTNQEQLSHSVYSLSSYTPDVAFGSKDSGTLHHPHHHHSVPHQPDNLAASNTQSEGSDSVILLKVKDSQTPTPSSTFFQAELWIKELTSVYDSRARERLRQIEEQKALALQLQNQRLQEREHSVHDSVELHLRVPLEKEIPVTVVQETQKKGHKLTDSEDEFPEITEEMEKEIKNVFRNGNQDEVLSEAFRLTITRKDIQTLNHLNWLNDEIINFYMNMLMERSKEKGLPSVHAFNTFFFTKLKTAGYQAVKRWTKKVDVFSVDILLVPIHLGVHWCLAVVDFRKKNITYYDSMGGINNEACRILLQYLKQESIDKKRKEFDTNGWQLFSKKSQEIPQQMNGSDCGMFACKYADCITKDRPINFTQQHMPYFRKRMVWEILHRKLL

[2] = molecular target: T2, USP2 (Homo sapiens (Human), UniProt O75604); experiment: covalent activity-based probe reaction, gel; readout is covalent reaction with C-terminal propargylamine warhead on SUMO
T2 chain: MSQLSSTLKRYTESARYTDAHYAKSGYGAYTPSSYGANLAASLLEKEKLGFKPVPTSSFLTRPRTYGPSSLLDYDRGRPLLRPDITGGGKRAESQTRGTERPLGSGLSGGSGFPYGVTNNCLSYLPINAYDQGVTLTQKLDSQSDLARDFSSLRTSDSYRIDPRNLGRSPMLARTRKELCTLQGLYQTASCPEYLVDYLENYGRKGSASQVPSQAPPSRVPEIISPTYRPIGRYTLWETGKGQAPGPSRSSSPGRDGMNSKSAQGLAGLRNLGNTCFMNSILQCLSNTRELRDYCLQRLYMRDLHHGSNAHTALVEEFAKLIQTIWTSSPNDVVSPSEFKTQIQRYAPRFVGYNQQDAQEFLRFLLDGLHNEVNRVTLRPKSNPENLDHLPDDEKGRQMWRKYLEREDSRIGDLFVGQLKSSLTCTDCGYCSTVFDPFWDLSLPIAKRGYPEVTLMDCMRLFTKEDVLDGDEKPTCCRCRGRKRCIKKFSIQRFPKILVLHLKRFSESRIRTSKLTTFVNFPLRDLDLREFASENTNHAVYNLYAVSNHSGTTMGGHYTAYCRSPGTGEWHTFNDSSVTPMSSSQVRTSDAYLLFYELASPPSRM

[3] = molecular target: T3, USPL1 catalytic domain (Homo sapiens (Human), UniProt Q5W0Q7); experiment: covalent activity-based probe SDS-PAGE shift, thermal shift, crystal structure; covalent reaction through C-terminal propargylamine warhead on SUMO with the USPL1 catalytic cysteine
T3 chain: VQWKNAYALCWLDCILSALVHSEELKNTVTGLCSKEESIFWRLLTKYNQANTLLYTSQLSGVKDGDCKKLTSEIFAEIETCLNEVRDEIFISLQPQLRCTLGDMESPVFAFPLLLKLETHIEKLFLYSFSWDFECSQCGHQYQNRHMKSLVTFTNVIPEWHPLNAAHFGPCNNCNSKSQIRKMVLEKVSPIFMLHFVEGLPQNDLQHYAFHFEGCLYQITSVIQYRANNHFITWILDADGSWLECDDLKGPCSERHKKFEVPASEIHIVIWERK

binding result [1]: binds
binding result [2]: no binding
binding result [3]: binds
B1: ΔN-SUMO2/3-PA probe (protein)
chain: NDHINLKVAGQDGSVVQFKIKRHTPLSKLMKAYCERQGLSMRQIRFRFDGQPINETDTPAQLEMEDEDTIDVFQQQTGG
modifications: propargylamine warhead at the C-terminus
